Experimental data taken from PubChem BioAssay AID652104 (National Center for Advancing Translational Sciences (NCATS), 2013).
Values joined by “and” are separate entries in the source; they are usually repeats but may differ in a detail not shown here. Equal values may be shown once. The whole screen tested about 410,000 compounds, of which about 7,200 (1.8%) were called active. Inconclusive results, whose numbers are uncertain, are shown with a selection of clear calls. Calls come from the whole dose curve; as a rule, active = well fitted activation curve with a large enough effect; inconclusive = small, poorly fitted or top-dose-only effect, or another doubt; inactive = no such curve, though single readings can be large or run the other way. Potencies of inconclusive entries are left out as doubtful fits.

test: qHTS of TDP-43 Inhibitors; settings: TDP-43 expressing yeast growth rescue, BacTiter-Glo, 24 h; growth rescue (activation): at 46.1 µM (top of the series) unless noted; note: nearly all actives have a fitted effect of over 50% in size; for growth rescue (activation): % of control where 0% means no effect
Method in brief: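 Growth rescue of TDP-43-toxic yeast measured as ATP luminescence (BacTiter-Glo). Cells grown to mid-log in raffinose, induced in galactose at OD600=0.02, exposed to compound 24 hr at 30 deg C.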
Potency is the fitted concentration of half-maximal effect; tags give direction and shape of the fitted curve.

| Compound | Potency | growth rescue (activation) |
| --- | --- | --- |
| COc1cccc(N2CCN(C(=O)CSc3ccc(F)cc3)CC2)c1 | inconclusive [activator, single point] |  |
| COc1ccc(NC(=O)CCCSc2nc(-c3ccco3)cc(C(F)(F)F)n2)c(OC)c1 | inactive |  |
| CSc1nc2ccc(Br)cc2[nH]1 | inconclusive [activator, single point] |  |
| CCCCNC(=O)C1=CC(c2ccc3c(c2)OCO3)=NS(=O)(=O)N1C | inactive |  |
| CCCCCCCCN1C(=O)[C@H](CC(=O)NCCCN2CCCC2=O)C[C@@]2(C(=O)OC)CC(C)(C)CC=C12 | active: 35.5 µM |  |
| CC1Cc2ccccc2N1C(=S)NC(=O)C1(C)CC1(Cl)Cl (centres undefined) | inconclusive [activator, partial curve, poor fit] |  |
| N#C/C(=C\c1ccc(O)c(Br)c1)C(=O)N1CCCCC1 | inconclusive [activator, single point] |  |
| COc1cc2c(cc1OC)CN(C(=O)CSc1nc(C)cc(C)c1C#N)CC2 | inconclusive [activator, partial curve] |  |
| O=[N+]([O-])c1ccc(Oc2ccc(S(=O)(=O)Nc3ccccc3)cc2)cc1 | active: 2.82 µM |  |
| Cc1c(Cl)cccc1Nc1nc(N)nc(CSc2nc3ccccc3s2)n1 | active: 20 µM and active: 15.8 µM |  |
| CC1CCN(S(=O)(=O)c2ccc3c(c2)N(CC(=O)NCCc2ccc(Cl)cc2)C(=O)CO3)CC1 | inactive |  |
| O=C1CSC(=S)N1c1cccc(Cl)c1 | inconclusive [activator, single point] |  |
| COc1ccccc1C(=O)Nc1cccc2c1CCCC2 | inconclusive [activator, single point] |  |
| CCCc1cc(=O)n2[nH]c(NCc3ccc(CC)cc3)nc2n1 | inactive |  |
| S=c1[nH]nc(CSCc2ccc(Cl)cc2Cl)n1-c1ccccc1 | inconclusive [activator, single point] |  |
| O=C1SC(Nc2ccc(Cl)cc2)C(=O)N1Cc1ccccc1 (centres undefined) | inconclusive [activator, full curve] |  |
| O=C(Nc1ccc(Cl)cc1C(F)(F)F)c1ccccc1Cl | inconclusive [activator, partial curve] |  |
| CCCCOc1nnc(-c2ccc(OCC)cc2)c2ccccc12 | inconclusive [activator, single point] |  |
| Cc1nc(-c2ccccc2)sc1C1(C)CC(c2ccccc2F)=NO1 (centres undefined) | inconclusive [activator, partial curve] |  |
| Cc1ccc(NC(=O)c2ccc(-n3cccn3)c([N+](=O)[O-])c2)cc1 | inactive |  |
| O=C(CSc1nnc(-c2ccc(F)cc2)c2ccccc12)Nc1ccccc1 | inconclusive [activator, single point] |  |
| O=C(CSc1nnc(Cn2c(=O)sc3ccccc32)n1-c1ccccc1)N1CCCC1 | inconclusive [activator, partial curve, poor fit] |  |
| Cc1ccccc1OC(C)C(=O)Nc1ccc2c(c1)OCCO2 (centres undefined) | active: 11.2 µM |  |

| Compound | Potency | growth rescue (activation) |
| --- | --- | --- |
| CSc1ccccc1NC(=O)CCc1ccccc1 | inconclusive [activator, partial curve] |  |
| COc1ccccc1CN(C)C(=O)CN1C(=O)c2ccccc2C1=O | inconclusive [activator, partial curve] |  |
| FC(F)(F)c1ccc(C2[C@H]3CN(Cc4ccc(-c5ccccc5)cc4)[C@H](c4ccccc4)C34CC2(c2ccccc2)C4)cc1 (some centres undefined) | inconclusive [activator, partial curve] |  |
| OC[C@@H]1CN(Cc2ccc(-c3ccccc3)cc2)C[C@H](n2cnc3c(Nc4ccccc4)ncnc32)O1 | inconclusive [activator, single point] |  |
| O=C(OCC(=O)N1CCN(C(=O)c2ccco2)CC1)c1cn(-c2ccccc2)nc1-c1ccccc1 | inconclusive [activator, single point] |  |
| Cc1ccc(Cl)cc1N1CCN(C(=O)Cn2ncc3c([nH]c4ccccc43)c2=O)CC1 | inactive |  |
| Cc1ccc(Cl)c(OC(=O)C2CSC3(C)CCC(=O)N23)c1 (centres undefined) | inconclusive [activator, full curve, poor fit] |  |
| O=C(NCc1ccccn1)c1nc(-c2cccs2)no1 | inconclusive [activator, single point] |  |
| Cn1nc(C(F)(F)F)cc1C(=O)Nc1ccc(-c2ccno2)cc1 | inconclusive [activator, full curve, poor fit] |  |
| CN1CCN(C(=O)c2cnn(-c3ccccc3)c2NC(=O)c2ccccc2Cl)CC1 | inactive |  |
| Cc1nc(Nc2ccc3c(c2)OCCO3)c2c(C)c(C)sc2n1 | active: 11.2 µM |  |
| Cn1nccc1C(=O)N1CCCC(C(=O)c2ccc(Oc3ccccc3)cc2)C1 (centres undefined) | inconclusive [activator, single point] |  |
| COc1cc(C=O)ccc1OCCCOc1ccc([N+](=O)[O-])cc1 | inconclusive [activator, partial curve] |  |
| Cc1ccc(C(C2=C(O)CC(C)(C)CC2=O)C2C(=O)CC(C)(C)CC2=O)s1 (centres undefined) | inconclusive [activator, single point] |  |
| O=C(Nc1onc2c1CCCC2)c1ccc(Cl)cc1 | inconclusive [activator, partial curve] |  |
| CCc1nc2nc(C)cc(Nc3ccc(Br)cc3F)n2n1 | inactive |  |
| COc1cccc2sc3ccc(C#CC4(N)CCCCC4)cc3c(=O)c12 | inconclusive [activator, partial curve] |  |
| COc1ccc(NS(=O)(=O)c2cccs2)c(OC)c1 | inconclusive [activator, partial curve] |  |
| CNC(=O)c1csc(-c2ccccc2)n1 | inconclusive [activator, partial curve] |  |
| Cc1oc2ccc(O)c(CN(C)Cc3ccccc3)c2c1C(=O)Nc1cccc(Cl)c1C | inactive |  |
| Cc1ccc(N2C(=O)c3ccc(C(=O)N4CCN(c5ccccc5F)CC4)cc3C2=O)cc1 | inconclusive [activator, partial curve, poor fit] |  |
| CCOCCCn1c(=O)c2ccccc2n2c(=S)[nH]nc12 | inconclusive [activator, partial curve] |  |
| Cc1ccc(C2(C)NC(=O)N(CC(=O)N3CCc4ccccc43)C2=O)cc1 (centres undefined) | inactive |  |

| Compound | Potency | growth rescue (activation) |
| --- | --- | --- |
| CCOc1ccc(NC(=O)c2c(NC(=O)Cc3ccccc3)sc3c2CCCC3)cc1 | inactive |  |
| Cc1ccc(-n2c3nc(=O)[nH]c(=O)c-3cc3c(Cl)cccc32)cc1 | inactive |  |
| Cn1nc(C(C)(C)C)cc1C(=O)Sc1cccc(Br)c1 | inconclusive [activator, single point] |  |
| COc1cc(CNc2ncnc3c2ncn3[C@H]2CN(Cc3cccc4ccccc34)C[C@@H](CO)O2)cc(OC)c1OC | inactive |  |
| Clc1ccc(-c2nnc(-c3ccccc3)c(N3CCSCC3)n2)cc1 | inconclusive [activator, single point] |  |
| O=P(C(=S)Nc1ccccc1Cl)(c1ccccc1)c1ccccc1 | inconclusive [activator, single point] |  |
| Cc1ccc(C)c(NC(=O)N2CCN(C)c3ncccc32)c1 | inactive |  |
| Cc1cccc(-c2nnc3n(CCc4ccccc4)c(=O)c4ccccc4n23)c1 | inconclusive [activator, partial curve] |  |
| COc1ccc(Br)cc1S(=O)(=O)N1CCCc2ccccc21 | inconclusive [activator, partial curve] |  |
| CCOC(=O)c1[nH]c2ccc(OC)cc2c1NC(=O)CN1CCSCC1 | inactive |  |
| CC(C)n1nccc1N(Cc1ccc(Cl)cc1)S(=O)(=O)c1ccccc1 | inconclusive [activator, single point] |  |
| Cc1ccc(NC(=O)c2cc([N+](=O)[O-])ccc2Cl)c(O)c1 | inconclusive [activator, single point] |  |
| CCOc1ccc(OCC)c(NC(=O)C2CCN(c3nnc(-n4cccc4)s3)CC2)c1 | inconclusive [activator, partial curve] |  |
| Cc1ccc(OCCCCn2cnc3ccccc32)c(C)c1 | inconclusive [activator, partial curve] |  |
| CC(=O)c1ccc(NC(=O)CCCSc2nc(-c3ccco3)cc(C(F)(F)F)n2)cc1 | inconclusive [activator, partial curve] |  |
| CC(C)CCOC(=O)C1C(c2ccccc2)C(C(=O)O)C1c1ccccc1 (centres undefined) | inconclusive [activator, partial curve] |  |
| Cc1cc(Br)c2[nH]cc(CCNC(=O)c3ccco3)c2c1 | inconclusive [activator, partial curve] |  |
| O=C(CSc1nc2ccccc2s1)N/N=C/c1ccco1 | inactive |  |
| CC(=O)c1cnc(SCc2ccc(Cl)cc2)nc1C | inconclusive [activator, single point] |  |
| N#C/C(=C\c1cccc(OC(=O)c2cccs2)c1)C(N)=O | inconclusive [activator, partial curve] |  |
| COc1ccc(NC(=O)CCCN2C(=O)CCn3nc(-c4cn(C)c5ccccc45)cc32)cc1OC | inactive |  |
| COc1ccc(Cl)cc1-c1cc(C(=O)NCc2ccco2)[nH]n1 | inconclusive [activator, single point] |  |
| O=[N+]([O-])c1cccc(C=NNc2ccc3ccccc3n2)c1O |  | inconclusive: -83.4% [activator] |
